# Assay results from the supplement of paper PMC10126150.
# Sequences with one replicate were seen in a single cluster, so their values are uncertain.
# Test system: ATP
# Experiment: switch fluorescence ratio, 500 uM ATP over buffer (Cy3 cluster intensity, sum of 5 cycles each) (fold (ratio)); higher = stronger signal-on switching upon ATP binding; sequences stand for … in TCGTCGGCAGCGTCAGATGTGTATAAGAGACAGTTTTTTTTTTTTTTTTTTTTTTTTT…TC
# Conditions: aptamer strand: ATP DNA aptamer (quencher-CACCTGGGGGAGTATTGCGGAGGAAGG + anchor), 100 nM annealed; ATP concentration: 500 uM; one replicate
# In short: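 Imaging in selection buffer was followed by imaging after 15 min with 500 uM ATP at 22 °C, for Cy3-labelled switching-strand clusters annealed to 100 nM quencher-labelled ATP aptamer on a modified Illumina MiSeq flow-cell. Five of these buffer/ATP cycles ran, separated by NaOH stripping and re-annealing. The fluorescence ratio per cluster is summed target-cycle over summed buffer-cycle Cy3 intensity, averaged per switch-domain sequence; clusters outside 100-1000 RFU were removed.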
# 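Also: ATP exposure 15 min at 22 °C before imaging.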
row,Sequence,switch fluorescence ratio
1,GTTCAGGCTC,1
2,GTTCATGTGG,0.995
3,GTTCCATTTG,0.975
4,GTTCCCCC,1.13
5,GTTCCCCGGA,1.01
6,GTTCCCG,0.982
7,GTTCCCGAGA,1.05
8,GTTCCCTGTA,1.03
9,GTTCCTAAGT,1
10,GTTCGGAATG,1.03
11,GTTCGGAGAA,1
12,GTTCGGCAAC,1.17
13,GTTCGGGCAG,0.971
14,GTTCTAAATG,1.01
15,GTTCTCAGGC,0.97
16,GTTCTCCCCT,1.16
17,GTTCTTACGT,1.05
18,GTTCTTATTA,0.941
19,GTTCTTGGAA,0.987
20,GTTGAATATC,0.999
21,GTTGAATCCG,1.03
22,GTTGACCGGA,1.08
23,GTTGACTGCT,0.988
24,GTTGACTTCG,1.66
25,GTTGAGGCTA,0.971
26,GTTGAGGGAG,1

row,Sequence,switch fluorescence ratio
1,GTTGATTACC,1.04
2,GTTGATTAGA,0.995
3,GTTGATTCGT,0.969
4,GTTGCAACTA,1.02
5,GTTGCAGCTC,1.01
6,GTTGCCACAT,1.02
7,GTTGCCGATT,0.987
8,GTTGCCGGTA,1.03
9,GTTGCTAGGA,1.01
10,GTTGCTCAG,1
11,GTTGCTCATT,1.07
12,GTTGCTTTTC,1.02
13,GTTGGAGCGT,1.02
14,GTTGGAGTGA,0.988
15,GTTGGATAGT,0.998
16,GTTGGCACCG,1.02
17,GTTGGCCTAG,0.984
18,GTTGGCTACT,0.982
19,GTTGGGAGTT,0.98
20,GTTGGGCGTA,1.05
21,GTTGGGGACA,1
22,GTTGGGGT,1
23,GTTGGTCCCA,1.02
24,GTTGGTTGC,1.02
25,GTTGTAAAC,1.01
26,GTTGTAAACT,1.27

row,Sequence,switch fluorescence ratio
1,GTTGTACTTT,1.05
2,GTTGTAGACG,1.02
3,GTTGTATCCT,1.08
4,GTTGTATCT,0.993
5,GTTGTCATA,0.966
6,GTTGTCGACG,1.01
7,GTTGTCTAAA,0.979
8,GTTGTGCTGT,1.01
9,GTTGTGGCTT,0.985
10,GTTGTGTAGA,1.01
11,GTTGTTAGAC,0.962
12,GTTTAATCAC,1.06
13,GTTTACACTG,0.996
14,GTTTACGGAA,1.03
15,GTTTCAAGGC,1.12
16,GTTTCCAAA,1
17,GTTTCCGGGT,1.07
18,GTTTCCTGTT,0.973
19,GTTTCGAGAC,1.03
20,GTTTCGGAAG,1.02
21,GTTTGAACCC,0.975
22,GTTTGATAAG,1.03
23,GTTTGCATCA,0.997
24,GTTTGCGCC,1.06
25,GTTTGGACGC,1.01
26,GTTTGGCCAC,1.05

row,Sequence,switch fluorescence ratio
1,GTTTGGGAG,0.944
2,GTTTGGTCCC,0.964
3,GTTTGGTTTC,1
4,GTTTGTCGG,1.03
5,GTTTGTCTTA,0.967
6,GTTTGTTGG,1
7,GTTTTAAGAT,0.985
8,GTTTTAATAC,1.04
9,GTTTTACTC,1.05
10,GTTTTAGGC,0.911
11,GTTTTATACG,1.02
12,GTTTTATTCC,1.05
13,GTTTTCACTG,1.03
14,GTTTTCATAT,1.01
15,GTTTTCATTA,0.987
16,GTTTTGGCAG,0.952
17,GTTTTGTGG,0.971
18,GTTTTGTT,1.01
19,TAAAAATTCT,1.06
20,TAAAAATTGT,0.958
21,TAAAACTC,0.971
22,TAAAACTGG,1.02
23,TAAAACTTGA,1
24,TAAAAGACTT,1.01
25,TAAAATAAA,0.997
26,TAAAATAAAA,1.05

row,Sequence,switch fluorescence ratio
1,TAAAATCTAC,1.1
2,TAAAATCTGA,1.02
3,TAAAATGAAT,1.04
4,TAAACAGTGC,1.29
5,TAAACATTAA,1.05
6,TAAACCATTA,1.04
7,TAAACGATC,0.978
8,TAAACGCA,1.12
9,TAAACGGGTG,1.07
10,TAAACTTAGC,0.978
11,TAAAGAATTC,0.958
12,TAAAGACCCG,0.945
13,TAAAGACTCG,0.983
14,TAAAGATAA,0.984
15,TAAAGCCCTT,1.07
16,TAAAGGACAG,0.982
17,TAAAGGCATA,0.988
18,TAAAGGTGAT,1.11
19,TAAAGTATAG,0.982
20,TAAAGTGATG,1.01
21,TAAAGTGGCC,1.03
22,TAAAGTGTAG,1.12
23,TAAATATCCC,0.994
24,TAAATCACGA,1.48
25,TAAATCATT,1.01
26,TAAATCCTG,1.02

row,Sequence,switch fluorescence ratio
1,TAAATCGACC,1.13
2,TAAATCGAGA,1.02
3,TAAATCGGAG,1.03
4,TAAATGGTCA,0.99
5,TAACAAGTGG,2.24
6,TAACACTCAT,1
7,TAACAGAGGA,0.986
8,TAACAGCTCT,0.936
9,TAACAGTAAA,0.999
10,TAACATTTTA,0.971
11,TAACCACCTC,1.16
12,TAACCCAGAC,1.37
13,TAACCGGTGA,1
14,TAACCGTCTT,1.05
15,TAACCGTGGG,1.03
16,TAACGAATTA,1.05
17,TAACGCAAAG,1.54
18,TAACGCAGGA,1.11
19,TAACGCCTGT,0.977
20,TAACGGAAGG,1.02
21,TAACGGGCA,1.03
22,TAACGTAGAG,1.04
23,TAACGTCGAA,0.985
24,TAACGTGCAT,1.02
25,TAACGTT,0.999
26,TAACGTTTTA,0.995

row,Sequence,switch fluorescence ratio
1,TAACTCAT,1.04
2,TAACTCATGC,1.08
3,TAACTCTTA,0.973
4,TAACTGAGTG,1.02
5,TAACTGCCCC,1.24
6,TAACTTAAAT,1.02
7,TAACTTTGGT,1.12
8,TAAGAACAAT,1.04
9,TAAGAAGACC,1.03
10,TAAGAATATA,1.01
11,TAAGAATCTT,0.985
12,TAAGACAGAC,1.05
13,TAAGACGTG,0.867
14,TAAGAGCTAT,1.03
15,TAAGAGGTTA,1.04
16,TAAGATAAAG,1.03
17,TAAGATCAGG,0.992
18,TAAGATTATT,0.974
19,TAAGCAACTT,1.09
20,TAAGCACGGC,1.04
21,TAAGCATAGC,1.04
22,TAAGCCGCTC,1.04
23,TAAGCCGCTT,1.03
24,TAAGCCGTGT,1.01
25,TAAGCGCCGG,1.04
26,TAAGCGGCCG,1.05

row,Sequence,switch fluorescence ratio
1,TAAGCGTCTC,0.995
2,TAAGCGTGCA,1.02
3,TAAGCTACTC,1.51
4,TAAGCTCCTA,1.04
5,TAAGCTTCTG,1.02
6,TAAGGACTAT,1.04
7,TAAGGAGCCG,1.01
8,TAAGGGTCAA,1
9,TAAGGGTCAT,0.984
10,TAAGGTAGTG,1.03
11,TAAGTACTAA,1.22
12,TAAGTAGGAG,0.98
13,TAAGTCCTGG,0.965
14,TAAGTCTAG,0.996
15,TAAGTCTCGA,0.987
16,TAAGTCTGG,1.07
17,TAAGTTACAG,1.09
18,TAAGTTACAT,1.01
19,TAAGTTATTC,0.955
